According to PubChem BioAssay AID1745853 (National Center for Advancing Translational Sciences (NCATS), 2022):
Several values for one entry are separate records, joined by “and”; a condition that tells them apart may be missing. Identical values can stand only once. The list shows a part of the results. Further columns of the screen follow, without active or inactive calls.

Experiments:
Assay in all cases: Primary Screen for Target Class Profiling of Small Molecule Inhibitors of Methyltransferases
[1] = biological target: Glycine N-methyltransferase (Homo sapiens) (UniProt Q14749); settings: purified enzyme, MTase-Glo SAH luminescence; measured here: GNMT inhibition; at 40 µM; stronger effect = lower value
Summary of the method: (§1)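 Each enzyme was reacted with SAM and its substrate, with compounds tested once at 40 uM; SAH formed was read by MTase-Glo luminescence.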

[2] = biological target: Guanidinoacetate N-methyltransferase (Homo sapiens) (UniProt Q14353); settings: purified enzyme, MTase-Glo SAH luminescence; measured here: GAMT inhibition; at 40 µM; stronger effect = lower value
Summary of the method: as §1

[3] = biological target: Histamine N-methyltransferase (Homo sapiens) (UniProt P50135); settings: purified enzyme, MTase-Glo SAH luminescence; measured here: HNMT inhibition; at 40 µM; stronger effect = lower value
Summary of the method: as §1

[4] = biological target: Nicotinamide N-methyltransferase (Homo sapiens) (UniProt P40261); settings: purified enzyme, MTase-Glo SAH luminescence; measured here: NNMT inhibition; at 40 µM; stronger effect = lower value
Summary of the method: as §1

[5] = biological target: Phenylethanolamine N-methyltransferase (Homo sapiens) (UniProt P11086); settings: purified enzyme, MTase-Glo SAH luminescence; measured here: PNMT inhibition; at 40 µM; stronger effect = lower value
Summary of the method: as §1
% is set by controls: 0 for no effect and ±100 for the full control effect.

Compound	activity change, negative = inhibition [1]	activity change, negative = inhibition [2]	activity change, negative = inhibition [3]	activity change, negative = inhibition [4]	activity change, negative = inhibition [5]
O=C(Nc1ccc2c(c1)OCCO2)N1Cc2ccccc2-n2cccc2C1c1ccccc1 (stereo not given)	4.86%	6.29%	-1.53%	-4.95%	0.898%
O=c1[nH]c2ccccc2n1C1CCN(CCCC(c2ccc(F)cc2)c2ccc(F)cc2)CC1	-1.28% and -10.1%	-11.4% and 6.14%	2.3% and -6.37%	-35.8% and -14.2%	-6.73% and 4%
N#Cc1ccc([C@H]2CCCC[C@H]2O)cc1C(F)(F)F	6.65%	4.2%	5.45%	-9.42%	-10.6%
Cn1nc(C2CCCNC2)n(C2CCCC2)c1=O (stereo not given)	-4.3%	-2.73%	-5.01%	0.039%	2.13%
COc1cc2c(cc1O)C1(C)CCC(O)C(C)(C)C1CC2=O (stereo not given)	-0.426%	-4.07%	-5.63%	-15.2%	-0.72%
Cc1ccc(C)c(NC(=O)N2Cc3ccccc3-n3cccc3C2C(C)C)c1 (stereo not given)	-5.93%	2.34%	2.36%	0.437%	1.16%
CCOc1ccc(C2c3cccn3-c3ccccc3CN2C(=O)NCc2ccccc2)cc1 (stereo not given)	1.33%	1.82%	3.27%	1.67%	4.3%
CC(C)C1c2cccn2-c2ccccc2CN1C(=O)Nc1ccccc1C(F)(F)F (stereo not given)	-0.302%	4.44%	2.12%	-2.36%	2.01%
CCc1ccc(NC(=O)N2Cc3ccccc3-n3cccc3C2c2cccs2)cc1 (stereo not given)	12.3%	2.25%	6.81%	5.32%	8.85%
CCC1c2cccn2-c2ccccc2CN1C(=O)Nc1ccc(C)cc1C (stereo not given)	-0.931%	3.41%	-0.537%	-3.42%	1.98%
CC(C)NC(=O)N1Cc2ccccc2-n2cccc2C1C (stereo not given)	10.3%	0%	4.26%	-3.19%	5.75%
CC[C@H]1CN2CC[C@H]1C[C@H]2[C@H](O)c1ccnc2ccc(OC)cc12	-0.563%	1.01%	-7.52%	-18.1%	5.73%
COc1ccccc1NC(=O)N1Cc2ccccc2-n2cccc2C1c1ccc(N(C)C)cc1 (stereo not given)	1.35%	3.54%	-8.87%	-2.52%	-0.044%
COc1ccc(C2c3cccn3-c3ccccc3CN2C(=O)Nc2ccc(C)c(C)c2)cc1OC (stereo not given)	9.55%	4.15%	1.82%	-0.526%	3.24%
CCC1CN2CCc3cc(OC)c(OC)cc3C2CC1CC1=NCCc2cc(O)c(OC)cc21 (stereo not given)	-8.94%	-4.62%	-8.77%	-17.9%	-6.09%
O=c1ccc2[nH]cc(C3=CCNCC3)c2[nH]1	-13.8%	7.99%	-55.1%	-10.5%	-10.4%
CCc1ccc(NC(=O)N2Cc3ccccc3-n3cccc3C2C)cc1 (stereo not given)	-2.57%	0.307%	-2.48%	-6.05%	-1.28%
CCOc1ccc(C2c3cccn3-c3ccccc3CN2C(=O)Nc2ccc(OC)c(OC)c2)cc1 (stereo not given)	-4.62%	3.12%	0.948%	-0.8%	-2.71%
CCOC(=O)c1ncn2c1CN(C)C(=O)c1c(I)cccc1-2	3.24%	-0.145%	11.2%	-8.75%	8.5%
COc1ccc(Cl)cc1NC(=O)N1Cc2ccccc2-n2cccc2C1c1ccc(F)cc1 (stereo not given)	-1.65%	5.51%	7.9%	1.95%	9.65%
